Among the data in publication PMC12136788 are binding signal values, retold here.

Sequences and labels used below:
B1: ENSG00000070961:be:win_1801|CDS|ENSG00000070961|bound_else_gene|NA|bound_elsewhere_windowed (ssRNA)
RNA: GGGAGUUCUACAGUCCGACGAUCAAGGGUGCAUCUGAGAUAAUUCUGAAAAAGUGUUUCAAAAUCUUGAGUGCUAAUGGUGAGGCAAAAGUAUUCAGACCAAGGGACCGUGAUGAUAUUGUAAAAACUGUGAUUGAACCGAUGCAACAGAGGAUUGAGCAUCA
B2: chr15:67202635:67202736:-|3pUTR|ENSG00000103591|msi1|total|mutant (ssRNA)
RNA: GGGAGUUCUACAGUCCGACGAUCUGCCAAAAUUGCCCUUAUCAUGUUGGCUGCCUGACUUGUUUACCGGGUCCCCUUAAUUUCCGUUUUCCGCCGGAGGUUAAGGAGAAAUCUUUUUUUUCCUCAGUAUAUUGUAAGAGAGUGCAACAGAGGAUUGAGCAUCA
B3: chr12:64128047:64128160:+|CDS|ENSG00000196935|unk|total|mutant (ssRNA)
RNA: GGGAGUUCUACAGUCCGACGAUCGGCAGCCUGACCAACAUCAGCCGGCACGACUCCCUCAAGAAGAUCGACAGCCCUCCCAUCCGAAGGUCCACGUCAUCAGGGCAAUACACGGGCUUCAAUGACCACAAGCCACUGGACCCACAACAGAGGAUUGAGCAUCA
B4: ENSG00000067955:stop:overlap|stop_codon|ENSG00000067955|stop_codon|NA|stop_codon (ssRNA)
RNA: GGGAGUUCUACAGUCCGACGAUCAAAUGGAGGUGAGAGUUUCACAGCUGCUGGCAGUAACUGGCAAGAAGACAACAAGACCCUAGUCCUGGUUCCAAUUUAGGUGGUGGUGAUGACCUCAAACUUCGUUAAUUAAUAGCACAGCAACAGAGGAUUGAGCAUCA
B5: chr12:133204733:133204837:+|3pUTR|ENSG00000090612|unk|FALSE|unique (ssRNA)
RNA: GGGAGUUCUACAGUCCGACGAUCCAAAAAGAUAGUAGACAAUACACAGGAAAACUGAAUUUAGUAACCACUCUGAAAAUUUUUAGCAGCAAGUCAUACCUUUUUUUAAAAAGUUCAUACAGGUGAGGAACCAUGUUAAACGUUCAACAGAGGAUUGAGCAUCA
B6: chr5:149857952:149860894:-|three_prime_utr|ENSG00000132915|control|control|control (ssRNA)
RNA: GGGAGUUCUACAGUCCGACGAUCACCACCCUUUCCUGGGAAGAGAUGACUCAAGCCAGUGGAAGACCACACACCUUGAGAAGUAGAAGAGUCAUAGGAUUUGAAAGCUGUUAGAGAAUUUAGCUUCCAGGACUGUUCAAUCUUCAACAGAGGAUUGAGCAUCA
B7: chr10:116672031:116672132:-|3pUTR|ENSG00000165868|msi1|total|mutant (ssRNA)
RNA: GGGAGUUCUACAGUCCGACGAUCCCUUUCCUGCCUUGCAUUAAUGCUAUCUCCCUGUGUACUGUUUCUCUUAAAUGAGCAGACCGAAAUCUGCAGUGUUGGCAGACCGGUGAUGGAGAGGAUGAUAAUUUUAUCUUCUGGCCACAACAGAGGAUUGAGCAUCA
B8: chr14:92797766:92797867:+|CDS|ENSG00000066455|msi1|total|mutant (ssRNA)
RNA: GGGAGUUCUACAGUCCGACGAUCCAUUUUGUGCGAAGAAAAAAGUCAGAACCUGAUGAUGAGCUGCUGUUUGAUUUUCUUAACCGUUCACAGAAGGAGCCUACCGGGAGGGUGGAAAUCAGAAAGGAAAAAGGCAAGACACCUCAACAGAGGAUUGAGCAUCA
B9: chr1:65389253:65389354:+|CDS|ENSG00000116675|unk|total|mutant (ssRNA)
RNA: GGGAGUUCUACAGUCCGACGAUCGUCCGAUGCAUGUGAUGUACCAGAAAAAUAUCCUCAGCUAUUUCAGGUGACACUGGAUGCCGAACUACAGCCCCAUGACAAAGUAACCGACUUAACUCCACCAUGGGAACAUUACUGCACCAACAGAGGAUUGAGCAUCA
B10: chr12:103777333:103777434:-|3pUTR|ENSG00000111696|msi1|total|mutant (ssRNA)
RNA: GGGAGUUCUACAGUCCGACGAUCUCCUGAACAUUUACGGGCUAUGCAUUGGGAACUGCAGGGGCACAGUGAUGGGCAAAGAUCCGCUGCUUCCAGAAGGCUGAUUUCGUGGGCUCCACAAUGGUAAAACGCUGCUGUGAGUGGCAACAGAGGAUUGAGCAUCA
B11: chr8:94832020:94832135:+|CDS|ENSG00000164941|unk|total|mutant (ssRNA)
RNA: GGGAGUUCUACAGUCCGACGAUCGGUACCCGAAGCAGCCCUAAAAUUAAACAAGGAUCUUUAUGUCCAUACGAUGAGAACUCCCGAUUUAUUGGCCAUGGAACCAGGCAUGGUAAAUGGAGAAACUGAGAGUUCUACUGCUGGCAACAGAGGAUUGAGCAUCA
B12: chr18:68676332:68676434:-|3pUTR|ENSG00000166479|msi1_unk|total|mutant (ssRNA)
RNA: GGGAGUUCUACAGUCCGACGAUCAUCAAGAUUAUGAGGUUAAAAAUAAUGUGGUUUUAUACCGCACCGUGGUUUUAUUUUGUCCGUUAUUUUUAAAGGAGAAGAAAUGUUACUUUUUAACUUUAUACUCAGUUGCAUUAUCAUCAACAGAGGAUUGAGCAUCA
B13: ENSG00000107863:be:win_2001|CDS|ENSG00000107863|bound_else_gene|NA|bound_elsewhere_windowed (ssRNA)
RNA: GGGAGUUCUACAGUCCGACGAUCAAGGACUGACAGUGCCCCCGAUCAGCAAGUGGAGACUGGGAAAUCCCCCUCUUUAUCUGGAGCCUCUGCCAAGCCUGCCCCUCAGUCGAGUGAAAACGCUGGUACUUCAGAUUUAGAACUCAACAGAGGAUUGAGCAUCA
B14: chr1:112912765:112912828:-|3pUTR|ENSG00000155380|msi1_unk|total|mutant (ssRNA)
RNA: GGGAGUUCUACAGUCCGACGAUCUUAAGGUUUGCAAAUUAAAAAGGGCCAGAAAAAUUUGGCACCAGGCAAACGAAUAAAGACCGGAUUGGGAAAGAAGUUGCUAAGUGUGCUCCGUUUUAAUAAGUAAUUCCUUCUCUUUUUCAACAGAGGAUUGAGCAUCA
B15: chr1:228098371:228098472:+|3pUTR|ENSG00000143761|msi1_unk|total|mutant (ssRNA)
RNA: GGGAGUUCUACAGUCCGACGAUCUGUGUUGAAAUCCAUUUUGGUGGUUGGUUUUUAACCCAAACUCAGUGCAUUUUUUAAAACCGUUAAGAAUCCAAGUCGAGAACACUUGAACACACAGAAGGGAGACCCCGCCCCGCACCGCAACAGAGGAUUGAGCAUCA
B16: chr4:100395340:100398373:-|three_prime_utr|ENSG00000164035|control|control|control (ssRNA)
RNA: GGGAGUUCUACAGUCCGACGAUCGGGGCUCUCCUGUUCUCUCACAUUUAAAAAUUCCAUUACUCCAUUUACAGGAGCGUUCCUAGGAAAAGGAAUUUUAGGAGGAGAAUUUGUGAGCAGUGAAUCUGACAGCCCAGGAGGUGGCAACAGAGGAUUGAGCAUCA
B17: chr16:46660370:46660459:-|3pUTR|ENSG00000069329|msi1_unk|total|mutant (ssRNA)
RNA: GGGAGUUCUACAGUCCGACGAUCAAAAGGAAACCGCUCACCAUACUCCUUUCCAUGUACAUCCAGUGAGGGUUUUAUUACGCCCGGUUUCCCUUCCACCGAUUGUGCCUUUCAGAAAUGCUGAGGCCGGUUUCCCAUUUCUUACAACAGAGGAUUGAGCAUCA
B18: chr4:113382420:113382521:+|3pUTR|ENSG00000145362|msi1|total|mutant (ssRNA)
RNA: GGGAGUUCUACAGUCCGACGAUCUCUUCAGGUCUUCCGAUCUUGGACAAGUUGGCAGGGUAUUUUAAAAGCUAUAACUACUGCCGUUUUCCAGUUUUCAUUGCUGCUUCCGCAAACCACGCUGUCUUACAGUGGUACUUUCUUCAACAGAGGAUUGAGCAUCA
B19: chr8:18872320:18872424:-|CDS|ENSG00000156011|unk|total|mutant (ssRNA)
RNA: GGGAGUUCUACAGUCCGACGAUCGCCAGAAUCAUUUCCGGAACAUUACAGGCUACAAAGGUACUGGACCAAGAUGCUGUUUCCCGUUUUUCAGUUCAGCAGGUGGAAAAAGAGCUGGACACUGCCAGUCGUAAAACACAGAGACAACAGAGGAUUGAGCAUCA
B20: ENSG00000163636:stop:overlap|stop_codon|ENSG00000163636|stop_codon|NA|stop_codon (ssRNA)
RNA: GGGAGUUCUACAGUCCGACGAUCUCUUCCAAUCAUUAGGGAACUGUCCAGGUUUAUUGCUGCCGGGAGACUACACUGCAAAAUAGAUAAAGUGAAUGAAAUAGUAGAAACCAACAGACCUGAUAGCAAGAACUGGCAGUACCACAACAGAGGAUUGAGCAUCA
B21: chr1:228098150:228098251:+|3pUTR|ENSG00000143761|msi1_unk|total|mutant (ssRNA)
RNA: GGGAGUUCUACAGUCCGACGAUCGCACCGUGCUGUAAAUGUGGCAGACGCAGCCUGCGGCCAGGCUUUUUAUUUAAUGUAAACCGUUUUUGUUUCCAAUGAGGCAGUUUCUGGUACUCCUAUGCAAUAUUACUCAGCUUUUUUCAACAGAGGAUUGAGCAUCA
B22: chr5:141515046:141515147:-|3pUTR|ENSG00000131504|msi1_unk|FALSE|overlapping (ssRNA)
RNA: GGGAGUUCUACAGUCCGACGAUCAAAAAGAGAGAGAGAGAGAGGUGUGAGGGACAAAAUGCAAACCUAUUUCCCUUGCCUCAUAGGCUUCUGGGAUGUCAUCACCUCCAGUUUGUUGGUUUUGUUUCCAACUGUUAAUAAAGCCAACAGAGGAUUGAGCAUCA

The other results are listed elsewhere or left out.

This experiment addresses MSI1 full-length (mouse, UniProt Q61474 1-362). The experiment can be described thus: nsRBNS (natural sequence RNA bind-n-seq); RBNS binding buffer (assumed for nsRBNS): 25 mM Tris pH 7.5, 150 mM KCl, 3 mM MgCl2, 0.01% Triton X-100, 500 ug/ml BSA, 20 U/ml SUPERase-In, 4 C; UNK is unkempt and MSI1 is Musashi-1; names of the RNAs are library labels; protein concentration not given here; high values mean tight binding.
Sequence of UniProt Q61474 (Q61474 whole entry): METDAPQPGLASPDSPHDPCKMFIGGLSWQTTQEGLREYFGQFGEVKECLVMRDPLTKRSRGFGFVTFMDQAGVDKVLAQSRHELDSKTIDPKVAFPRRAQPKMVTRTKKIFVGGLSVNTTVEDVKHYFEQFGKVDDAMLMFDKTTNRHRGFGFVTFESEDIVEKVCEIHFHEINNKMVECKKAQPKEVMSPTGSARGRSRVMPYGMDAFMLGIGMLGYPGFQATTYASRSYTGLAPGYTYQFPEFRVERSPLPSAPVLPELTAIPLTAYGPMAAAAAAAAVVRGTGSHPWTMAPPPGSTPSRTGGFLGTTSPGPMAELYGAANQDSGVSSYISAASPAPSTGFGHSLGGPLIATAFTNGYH
The molecule B1 showed a binding signal of 0.407 enrichment R. With B2, the binding signal came to 0.438 enrichment R. The value for B3 was 0.423 enrichment R.

For B4, the binding signal came to 0.854 enrichment R.

B5: the binding signal was 3.58 enrichment R. The same measure for B6: 1.85 enrichment R. In turn, B7 returned a binding signal of 0.355 enrichment R.

As to B8, the binding signal amounted to 0.479 enrichment R. The value for B9 was 0.51 enrichment R; that for B10 was 0.553 enrichment R; that for B11 was 0.608 enrichment R. The same measure for B12: 0.295 enrichment R. The value for B13 was 0.641 enrichment R; that for B14 was 0.277 enrichment R. B15 registered a binding signal of 0.398 enrichment R.

Consider B16, for which the binding signal was 0.493 enrichment R. The value for B17 was 0.39 enrichment R; that for B18 was 0.277 enrichment R; that for B19 was 0.457 enrichment R. The same measure for B20: 1.03 enrichment R; for B21: 0.764 enrichment R.

B22 yielded a binding signal of 0.519 enrichment R.
